Assay results reported in a compilation of properties of binary mixtures (doi:10.1007/s10953-017-0578-y).
Some of these densities may be calculated back from excess volumes.

Assay: xn = mol fraction of the nth substance listed
Settings: 100 kPa

CC[n+]1ccn(C)c1.F[B-](F)(F)F + CNc1ccccc1
x1 = 1
Settings	mass density [kg/m3]
293.15 K	1283.6
303.15 K	1276.1
313.15 K	1268.6
323.15 K	1261

CNc1ccccc1 + CC[n+]1ccn(C)c1.F[B-](F)(F)F
mass density [kg/m3]
Settings	x2 = 0	x2 = 0.1046	x2 = 0.2048	x2 = 0.3057	x2 = 0.3985	x2 = 0.5064	x2 = 0.6045	x2 = 0.6994	x2 = 0.8005	x2 = 0.9084
293.15 K	–	1042.1	1084.9	1122.1	1152.4	1182.1	–	1228.5	1248.5	1268.8
303.15 K	–	1034.8	1077.1	–	1144.6	1174.2	1198.9	1220.9	1241.3	1261.8
313.15 K	970.3	–	–	1105.9	1136.9	1166.3	1191.3	1213.2	1234	1254.8
323.15 K	962.1	1020.1	1061.5	1097.9	1129.1	1158.5	–	1205.5	1226.8	1247.9
